Source: PubChem BioAssay AID485281 (National Center for Advancing Translational Sciences (NCATS), 2010)
Out of some 350,000 compounds screened, about 260 (0.074%) were called active. Inconclusive means that the source gave no clear call. Such entries were picked first, then a sample of the others. Calls follow the shape of the dose curve; as a rule, active = well fitted inhibition curve with a large enough effect; inconclusive = small, poorly fitted or top-dose-only effect; inactive = no such curve, though single readings can be large or run the other way. A potency beside an inconclusive call is a rough fit, not a confirmed value.

biological target: Ferritin light chain (Equus caballus) (UniProt P02791); assay: qHTS Assay for Identification of Novel General Anesthetics; conditions: apoferritin/1-aminoanthracene competitive binding, fluorescence; activity change, negative = displacement: at 77.5 µM (top of the series); also: nearly all actives have a fitted effect of over 20% in size
Sequence of UniProt P02791 (P02791 whole entry, looked up): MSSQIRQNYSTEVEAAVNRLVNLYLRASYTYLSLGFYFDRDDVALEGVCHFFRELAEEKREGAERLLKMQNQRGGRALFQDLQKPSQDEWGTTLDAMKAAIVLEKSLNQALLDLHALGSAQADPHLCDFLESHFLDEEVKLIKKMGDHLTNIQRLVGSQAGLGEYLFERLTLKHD
Procedure, shortened: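 Probe: 1-aminoanthracene (50% saturated, PBS). Protein: horse-spleen apoferritin, 10 uM. Incubation: 10 min, room temperature. Detection: 380 nm excitation, 535 nm emission. Analysis: normalized response, four-parameter Hill.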
% is scaled to controls: 0 for no effect and ±100 for the full control effect; potency is read from the fitted curve at half-maximal effect; tags tell the direction and shape of the fitted curve.

Structure (SMILES)	activity change, negative = displacement	Potency
O=C1C=C(Nc2cccc3cccnc23)c2ccccc2C1=O	inactive: 5.15%	–
CCN1/C(=C\C=C(C(C)=O)C(C)=O)Sc2ccccc21	–	inconclusive: 20 µM [inhibitor, partial curve]
COC(=O)[C@H](C)NC(=O)Nc1ccc(Oc2ccccc2)cc1	–	inconclusive: 28.2 µM [inhibitor, partial curve]
COc1ccc(C2(C)NC(=O)N(CC(=O)NCCC3=CCCCC3)C2=O)cc1OC (stereo not given)	–	inconclusive: 28.2 µM [inhibitor, partial curve]
CCOC(=O)N1CCC(NC(=O)Cc2ccccc2)CC1	inactive: 5.41%	–
O=C(CCc1nnc2ccc(NCc3ccco3)nn12)Nc1ccccc1F	–	inconclusive: 31.6 µM [inhibitor, single point]
O=C1c2ccccc2C(=O)N1CCC1=CCCCC1	–	active: 22.4 µM
Cc1cccc(N2CCn3c2nc2c3c(=O)n(CCc3ccccc3)c(=O)n2C)c1	–	inconclusive: 0.891 µM [inhibitor, full curve, poor fit]
CN(C)S(=O)(=O)c1ccc(C(=O)NC2CCCc3ccccc32)cc1 (stereo not given)	–	inconclusive: 31.6 µM [inhibitor, single point]
CC(C)N1C(=O)C(O)(c2c[nH]c3ccccc23)c2ccccc21 (stereo not given)	–	inconclusive: 28.2 µM [inhibitor, partial curve]
Cc1cc2ccccc2n1CCNC(=O)c1ccccc1	–	inconclusive: 25.1 µM [inhibitor, partial curve]
O=C(Nc1ccc(N2CCCCC2)cc1)c1cccnc1Cl	–	inconclusive: 28.2 µM [inhibitor, partial curve]
COC(=O)c1c(NC(C)=O)sc(Cc2ccccc2)c1C	–	inconclusive: 28.2 µM [inhibitor, partial curve]
C/C(=N\NC(=O)c1ccccc1NC(=O)c1ccc(Cl)cc1)c1ccncc1	inactive: -13.6%	–
O=C(CSc1ncn[nH]1)Nc1nc(-c2ccccc2)ns1	inactive: 0.167%	–
CC(C)CCN1C(Nc2ccccc2)=NC[C@@H]1CC(C)C	inactive: -5.75%	–
CC(C)c1ccc(NC(=O)c2ccc(NC3=NC4CS(=O)(=O)CC4S3)cc2)cc1 (stereo not given)	–	inconclusive: 25.1 µM [inhibitor, partial curve]
CC(CC(=O)Nc1cccc(Cl)c1)c1ccccc1 (stereo not given)	–	inconclusive: 28.2 µM [inhibitor, single point]
Cc1ccc(S(=O)(=O)NCc2ccc3c(c2)OCO3)cc1C	–	inconclusive: 31.6 µM [inhibitor, single point]
C/C(=N\N(c1ccccc1)c1ccccc1)c1ccc(O)cc1	–	inconclusive: 50.1 µM [inhibitor, single point]
